Test results from the supplement of paper PMC3334620.
Over roughly 33,000 sequences, “E-score (-0.5 to 0.5)” has its median near -0.041; the highest 2% begin near 0.37. This is one part of the list.

biological target: T1, Ecm22 (UniProt Q05958); assay: PBM E-score (8-mer binding enrichment) (E-score (-0.5 to 0.5)); higher = stronger / more preferred TF binding; most listed sequences are background and not binding sites; details: protein concentration: 200 nM; construct: GST-full length
T1 sequence: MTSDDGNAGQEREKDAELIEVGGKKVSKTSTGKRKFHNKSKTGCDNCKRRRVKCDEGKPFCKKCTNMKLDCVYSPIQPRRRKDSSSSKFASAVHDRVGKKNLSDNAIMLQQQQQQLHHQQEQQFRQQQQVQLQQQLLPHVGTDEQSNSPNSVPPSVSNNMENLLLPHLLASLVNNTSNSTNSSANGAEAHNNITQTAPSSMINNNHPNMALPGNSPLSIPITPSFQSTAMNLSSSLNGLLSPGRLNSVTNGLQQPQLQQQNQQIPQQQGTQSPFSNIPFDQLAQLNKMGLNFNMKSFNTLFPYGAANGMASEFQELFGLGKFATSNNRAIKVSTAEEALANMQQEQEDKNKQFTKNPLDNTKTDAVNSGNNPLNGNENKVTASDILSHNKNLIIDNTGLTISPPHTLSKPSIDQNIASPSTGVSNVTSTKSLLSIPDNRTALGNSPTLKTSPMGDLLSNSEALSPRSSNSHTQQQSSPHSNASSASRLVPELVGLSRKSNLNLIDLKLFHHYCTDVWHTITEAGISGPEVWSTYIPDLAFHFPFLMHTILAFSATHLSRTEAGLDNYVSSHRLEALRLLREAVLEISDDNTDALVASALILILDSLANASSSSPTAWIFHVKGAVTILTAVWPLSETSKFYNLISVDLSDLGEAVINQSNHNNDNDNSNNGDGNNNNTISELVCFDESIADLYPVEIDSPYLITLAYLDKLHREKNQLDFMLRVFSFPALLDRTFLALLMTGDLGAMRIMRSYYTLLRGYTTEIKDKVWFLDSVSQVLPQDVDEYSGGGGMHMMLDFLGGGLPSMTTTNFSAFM
In short: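 GST-tagged yeast TFs (full-length or DNA-binding domain) were made by PURExpress in vitro transcription/translation and applied at about 100-200 nM to universal all-10-mer Agilent arrays. The arrays were made double-stranded by primer extension, on fresh or once-stripped slides. Bound protein was detected with fluorescent anti-GST, and scans were normalised with masliner. Each ungapped eight-base word, pooled with its reverse complement, received an E-score (modified Wilcoxon-Mann-Whitney statistic) from the Universal PBM Analysis Suite.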

Sequence | PBM E-score
TAAATGTA | -0.0523
GAGGGTTA | -0.0446
CTCGAAGA | -0.124
ATCTAGAC | 0.016
GTCTGAGA | -0.0659
CATCTCAA | -0.184
GACTTCCA | -0.246
AAATCTCA | 0.0114
CAGAATAC | 0.0856
TGACCGCA | -0.125
CGCTCAGC | 0.189
CGAGTGAA | 0.245
GAAATGTA | 0.00436
CGTCTGCA | -0.00416
TGAATTCA | -0.0829
AGATGTTA | -0.043
GGACATCA | 0.00287
AAAAAGTT | -0.226
AGATATGA | -0.0436
AAACGCCT | -0.0201
CAGATACG | 0.346
CCACGTCA | -0.297
GATCGTGA | -0.0461
CATGATCC | -0.0897
GCGCCGAA | -0.017

Sequence | PBM E-score
ACCCAGCC | -0.191
TAGTTAAA | 0.0471
GGCGGTCA | 0.111
AAAGCCGA | -0.0239
CCTACCTA | -0.133
CAGAGCCC | -0.0894
CCGTGGGA | -0.135
CGAGCGAA | 0.26
CGTCGTAG | 0.406
GTCGAGAC | 0.156
TTGCCCAA | -0.0518
AGTCCGTG | -0.0515
CCTTGACC | -0.282
GGCGAGAA | 0.0538
CTGAACTA | -0.092
GAGGGTCC | -0.0951
AACTCATG | -0.0529
AATTGCAG | -0.0638
CGTATGTA | 0.351
TACTCACA | -0.0537
ACGGCACG | 0.222
CACATAAA | 0.169
ATTGATAC | 0.204
GGTGTGAC | -0.177
CAACACTC | -0.00527

Sequence | PBM E-score
TAGTCAGA | -0.276
CGCCCATA | -0.00763
GCCGTGTA | 0.229
ACTGTTGC | -0.0275
GCCGACCC | -0.219
GAGTCAAA | -0.243
AGCTAAGA | -0.067
ACGTCATC | 0.0129
CATTCTCG | 0.186
CCATGGGC | -0.347
GCTATGCA | -0.168
ACATGCGG | 0.0685
ATCGGAGG | -0.158
AGTGGAGG | -0.0301
ACGCCGTG | -0.146
ACTGTAAT | -0.0882
GTACAGGA | 0.192
ATTCTCAC | -0.0663
CTAGAGCA | -0.097
ATCTACTC | -0.13
AGAGACGC | 0.0019
CGGTTGAA | -0.0459
AGCTACTA | -0.0215
GACTTATC | -0.164
CACTTGAC | -0.199

Sequence | PBM E-score
AAGAGCCG | -0.132
GGGCACGA | -0.0319
CGGTCCAC | -0.0214
GCCCCGGC | -0.158
GAGGAATA | 0.0494
ATTAGGCC | -0.252
ATCCCGAG | 0.114
CATGTTAA | 0.08
GCCGCGAC | -0.00019
GGGCGACA | -0.188
AATCATCG | 0.157
TAGAATGA | -0.323
ACCAGTCC | -0.332
GTACTACA | 0.194
ACTTTTTG | -0.147
CGAGGGCC | 0.216
CAATAATC | -0.0306
AAAGGAGG | -0.207
ATGATCAT | -0.163
ACGAACGT | 0.307
CATAGACG | -0.0708
AGGCCGGA | -0.0726
GATACACC | 0.0562
CGGAAACA | 0.00854
GAAGTCTC | 0.00193

Sequence | PBM E-score
TAGACCTA | -0.0222
CGTCAAGA | -0.0752
GCGCGAGA | 0.15
CTTCTTTC | -0.162
CTCGGATA | 0.346
GCTTAAGC | -0.0773
TGAGGTAA | -0.264
ATGGGGTC | -0.213
CGTAAACC | 0.366
ACGTCACT | -0.036
AGCATAGA | -0.164
ATGCCCGA | 0.105
GATTTGGC | -0.0947
CTCACTTC | -0.0483
ATCGCAAT | 0.105
CCTCTCGC | 0.115
TAATATTA | 0.233
CCACATAA | -0.061
CGGCGCAA | -0.0354
AACAGTGT | -0.0766
CGCGACAA | 0.164
AGCCACAT | -0.028
CCCATTTA | 0.00331
CGACGATC | 0.232
CACAAGCC | -0.152

Sequence | PBM E-score
CTCAACAA | 0.0458
ATTCGAGG | 0.111
GATCCTAA | 0.172
ATCTTTGG | -0.293
CCAGAGGG | -0.229
ATATTACA | 0.146
AATATAAA | 0.115
GACATCCC | -0.0525
AGTCTAGC | -0.172
GGCAGAAC | -0.117
CGGTTGGC | 0.223
CTTGGTAA | 0.0763
GAATCGTC | 0.14
CGTAGCCA | 0.254
ACGCACGC | 0.159
CAGTGCAG | 0.0521
CTAGGTGA | -0.148
GCGCTTGA | -0.00426
AAACCTGA | -0.0551
ACTGAAGG | -0.143
TTGGACAA | -0.0897
CGTACCAG | 0.397
AGCCGTCA | -0.0186
ATGTACAT | 0.0426
AGCCACGG | -0.305

Sequence | PBM E-score
AACCATGG | -0.0403
AGATCGTA | 0.389
ATGGTAAT | -0.00988
ATGGGTTA | -0.0614
GGCCCGAA | 0.13
AGAGAGAT | -0.163
CCGCTTCA | -0.0146
CAGACTTC | -0.22
GCAGACAA | -0.0357
AGGAGGTA | -0.043
AGCACGCC | 0.0961
AGACCCAC | -0.14
GGTCCAAA | -0.244
ATTTTAGA | -0.111
ACTGCGGA | 0.15
ACCGCGCT | -0.0866
ATCTGCAA | -0.202
ACTCAGCT | -0.0865
CCGACTGC | 0.132
ACTCTCGC | 0.161
AGATATGG | 0.054
AAAGCCAA | -0.222
